Assay results as given in the supplement of paper PMC9446081.
Screen size: about 39,000 compounds; about 220 (0.56%) showed activity. The list shows a part of the results.

What follows are compounds tested on Escherichia coli K-12 BW25113 (assay: relative growth (OD600 normalised to plate interquartile mean) (fraction); higher = less growth inhibition, active = 0.2 or less). Details: 50 µM; LB; incubation time: overnight (16-24 h).
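Also: static incubation at 37 °C against the wild-type strain, values averaged over two biological replicates.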

| SMILES | relative growth |
| --- | --- |
| CCN1C(=O)CN(CC(=O)O)C1=O | inactive: 1.04 |
| O=C(C[C@@H]1CC[C@H](NC(=O)c2ccc(F)cc2)[C@H](CO)O1)NCc1ccncn1 | inactive: 1.01 |
| C[C@H](CO)N1C[C@H](C)[C@H](CN(C)S(=O)(=O)c2cn(C)cn2)Oc2ccc(NC(=O)Nc3ccc4c(c3)OCO4)cc2CC1=O | inactive: 0.979 |
| CCCN1C[C@@H](C)[C@@H](OC)CN(C)C(=O)c2cc(NS(=O)(=O)c3cn(C)cn3)ccc2OC[C@@H]1C | inactive: 0.98 |
| Cn1ccc(CO)n1 | inactive: 1.01 |
| O=C(NO)c1ccc(C(=O)N/N=C/c2ccc(B(O)O)cc2)cc1 | inactive: 0.977 |
| O=C(O[C@@H]1Cc2c(O)cc(O)cc2O[C@@H]1c1cc(O)c(O)c2c(=O)c(O)cc([C@H]3Oc4cc(O)cc(O)c4C[C@H]3O)c-2c1)c1cc(O)c(O)c(O)c1 | inactive: 0.941 |
| C[C@H](CO)N1C[C@H](C)[C@H](CN(C)Cc2ccc3c(c2)OCCN3C)OCc2cn(nn2)CCCC1=O | inactive: 0.954 |
| C[C@@H]1CN([C@@H](C)CO)C(=O)c2cc(NC(=O)Nc3cccc4ccccc34)ccc2O[C@@H](C)CCCCO[C@H]1CN(C)CC1CC1 | inactive: 1 |
| CC(C)c1ccc(C(C)(C)CO)cc1 | inactive: 0.975 |
| C[C@@H]1CCCCO[C@H](CN(C)Cc2ccccc2)[C@@H](C)CN([C@@H](C)CO)C(=O)c2cc(NC(=O)CCC(F)(F)F)ccc2O1 | inactive: 0.991 |
| O=C(C[C@H]1CC[C@@H](NS(=O)(=O)c2ccccc2)[C@@H](CO)O1)NCc1ccncn1 | inactive: 1.01 |
| C[C@@H]1CN([C@H](C)CO)C(=O)CCCn2nncc2CO[C@@H]1CN(C)C(=O)C1CC1 | inactive: 1.01 |
| O=C1O[C@@H](c2ccccc2)[C@@H](c2ccccc2)N2[C@@H](c3ccc(O)cc3)[C@]3(C(=O)Nc4ccc(C#CC5(O)CCCCCC5)cc43)[C@@H](C(=O)N3CCN(c4ncccn4)CC3)[C@H]12 | inactive: 1.01 |
| O=C(C[C@H]1C=C[C@H](NC(=O)CN2CCOCC2)[C@H](CO)O1)NCCc1ccccc1 | inactive: 0.979 |
| CN(C)C(=O)c1cccc(-c2ccc3n(c2=O)C[C@H]2[C@H](CO)[C@@H](C(=O)NCC4CC4)N[C@@H]32)c1 | inactive: 0.963 |
| O=C(O)CCNC(=O)c1cccc([N+](=O)[O-])c1 | inactive: 0.954 |
| O=C1N[C@@H](Cc2ccccc2)C(=O)N2[C@@H]1C[C@@H](C(=O)NCc1ccc(F)cc1)[C@H]2c1cccc(OCCO)c1 | inactive: 0.993 |
| C[C@@H]1CN([C@@H](C)CO)C(=O)c2cc(NS(=O)(=O)c3ccc(F)cc3)ccc2O[C@@H]1CN(C)CC1CC1 | inactive: 0.992 |
| O=C(C[C@@H]1CC[C@H]2NC[C@@H](O)COC[C@@H]2O1)NCCN1CCCC1 | inactive: 0.977 |
| Cc1ccc(S(=O)(=O)N2C[C@H](O)COC[C@H]3O[C@@H](CC(=O)N[C@H]4CCN(Cc5ccccc5)C4)CC[C@@H]32)cc1 | inactive: 1.05 |
| Cc1ccc(S(=O)(=O)N(C)C[C@H]2Oc3ccc(NC(=O)Nc4ccc(C(F)(F)F)cc4)cc3CC(=O)N([C@@H](C)CO)C[C@H]2C)cc1 | inactive: 1.01 |

| SMILES | relative growth |
| --- | --- |
| O[C@@H](Cc1ccccc1)[C@@H](/C=C/C1CC1)N(CC#Cc1ccccc1)Cc1ccccc1Br | inactive: 1.01 |
| COc1ccc(-c2ccc3c(c2)O[C@H](CN(C)CC2CCOCC2)[C@@H](C)CN([C@H](C)CO)S3(=O)=O)cc1 | inactive: 1.02 |
| COc1cccc(NC(=O)N2C[C@@H](O)COC[C@H]3O[C@@H](CC(=O)NCc4ccccc4F)CC[C@@H]32)c1 | inactive: 0.917 |
| Cn1nc(C2CC2)cc1N | inactive: 1.01 |
| Cc1cc(-c2nnc(N)o2)nn1C | inactive: 0.983 |
| C[C@@H]1CCCCO[C@@H](CN(C)C(=O)C2CCCCC2)[C@@H](C)CN([C@@H](C)CO)C(=O)c2cc(NC(=O)C3CCCCC3)ccc2O1 | inactive: 0.991 |
| C[C@H]1CCCCO[C@@H](CN(C)C(=O)Nc2ccc(F)cc2)[C@@H](C)CN([C@@H](C)CO)C(=O)c2cc(NS(=O)(=O)c3cccs3)ccc2O1 | inactive: 0.992 |
| O=c1c(O)cc(C2Oc3cc(O)cc(O)c3CC2O)cc2c(C3Oc4cc(O)cc(O)c4CC3O)cc(O)c(O)c12 (centres undefined) | inactive: 1.03 |
| C[C@@H]1CN([C@@H](C)CO)C(=O)c2cc(NC(=O)Nc3ccc(C(F)(F)F)cc3)ccc2O[C@H]1CN(C)S(=O)(=O)c1ccc(Cl)cc1 | inactive: 0.976 |
| O=C(CCCCC(=O)N/N=C/[C@@H](O)[C@H](O)[C@H](O)CO)NO | inactive: 0.976 |
| C[C@@H]1CCCCO[C@@H](CN(C)C(=O)Nc2ccccc2)[C@H](C)CN([C@@H](C)CO)C(=O)c2cc(NC(=O)C3CCCCC3)ccc2O1 | inactive: 1.02 |
| C[C@H](CO)N1C[C@H](C)[C@@H](CN(C)Cc2ccc(Cl)c(Cl)c2)Oc2ccc(NC(=O)CCCCCC(=O)Nc3ccccc3N)cc2C1=O | inactive: 0.968 |
| C[C@@H]1CCCCO[C@@H](CN(C)C(=O)Nc2ccc(C(F)(F)F)cc2)[C@H](C)CN([C@@H](C)CO)C(=O)c2cc(N(C)C)ccc2O1 | inactive: 0.987 |
| C[C@@H]1CN([C@H](C)CO)C(=O)Cc2cc(NC(=O)Cc3ccccc3)ccc2O[C@H]1CN(C)S(=O)(=O)c1cccs1 | inactive: 1 |
| C[C@H](CO)N1C[C@H](C)[C@H](CN(C)S(=O)(=O)c2cccs2)Oc2ncc(C#Cc3ccc(F)cc3)cc2C1=O | inactive: 1.02 |
| CCN(CC)c1ccc(N2CC=C[C@@]34O[C@@H]5C=CCCOC(=O)[C@@H]5[C@H]3C(=O)N([C@@H](C)CO)[C@@H]4C2=O)cc1 | inactive: 0.963 |
| CO[C@@H]1CN(C)C(=O)c2ccc(NC(=O)CN(C)C)cc2OC[C@@H](C)N(C(=O)c2ccncc2)C[C@H]1C | inactive: 1.01 |
| C[C@H](CO)N1C[C@H](C)[C@H](CN(C)C(=O)NC2CCCCC2)OCc2ccccc2-c2c(n(C)c3ccccc23)C1=O | inactive: 1 |
| COc1ccc(NC(=O)N(C)C[C@@H]2Oc3c(NC(=O)C4CC4)cccc3C(=O)N([C@H](C)CO)C[C@@H]2C)cc1 | inactive: 1.03 |
| C[C@@H]1CN([C@@H](C)CO)C(=O)c2ccccc2-c2ccccc2CO[C@@H]1CN(C)Cc1ccccc1C(F)(F)F | inactive: 1.04 |
| C[C@H](CO)N1C[C@H](C)[C@@H](CN(C)C(=O)Nc2ccc(C(F)(F)F)cc2)Oc2ccc(NC(=O)Cc3cn(C)c4ccccc34)cc2CC1=O | inactive: 1.02 |
| Cc1nnc(CN)o1 | inactive: 0.983 |

| SMILES | relative growth |
| --- | --- |
| C[C@H](CO)N1C[C@H](C)[C@H](CN(C)CC2CC2)Oc2c(NS(=O)(=O)c3cccs3)cccc2C1=O | inactive: 0.99 |
| C[C@@H]1CN([C@H](C)CO)C(=O)c2cc(NC(=O)NC3CCCCC3)ccc2O[C@@H]1CN(C)Cc1ccc(Cl)c(Cl)c1 | inactive: 0.919 |
| N=c1sccn1CC(=O)O | inactive: 1.04 |
| O=C(C[C@@H]1CC[C@@H](NC(=O)Nc2ccc3c(c2)OCO3)[C@@H](CO)O1)NCCCN1CCOCC1 | inactive: 1.03 |
| Cn1cnc(CCNC(=O)C[C@H]2CC[C@H]3[C@@H](COC[C@H](O)CN3C(=O)Nc3ccc(C(F)(F)F)cc3)O2)c1 | inactive: 0.99 |
| C[C@H](CO)N1C[C@H](C)[C@@H](CN(C)S(=O)(=O)c2ccccc2)Oc2c(NS(=O)(=O)c3ccccc3)cccc2C1=O | inactive: 0.994 |
| C[C@H](CO)N1C[C@H](C)[C@H](CN(C)S(=O)(=O)c2ccccc2C#N)OCc2cn(nn2)CCCC1=O | inactive: 0.995 |
| C[C@H]1CN([C@@H](C)CO)C(=O)c2cccc(NC(=O)Nc3cccc4ccccc34)c2O[C@H]1CN(C)S(=O)(=O)c1cccs1 | inactive: 1.02 |
| CCCC1CC(C(=O)NC(C(C)O)C2OC(SC)C(O)C(O)C2O)N(C)C1.Cl (centres undefined) | inactive: 0.873 |
| C[C@@H]1CN([C@H](C)CO)C(=O)c2cc(NC(=O)CCCN(C)C)ccc2O[C@H]1CN(C)Cc1ccncc1 | inactive: 0.996 |
| COc1ccc(CN(C)C[C@@H]2Oc3c(NC(=O)Nc4ccc(C(F)(F)F)cc4)cccc3C(=O)N([C@@H](C)CO)C[C@H]2C)cc1 | inactive: 0.818 |
| CN(C)CCOC(c1ccc(Cl)cc1)c1ccccn1.O=C(O)C=CC(=O)O (centres undefined) | inactive: 0.986 |
| C[C@@H](N)C1CCC(C(=O)Nc2ccncc2)CC1 (some centres undefined) | inactive: 1.04 |
| O=C(O)CCCCCCC(=O)Nc1ccc([C@H]2O[C@@H](CSc3ccncc3)C[C@H](c3ccccc3)O2)cc1 | inactive: 0.985 |
| COc1ccc(S(=O)(=O)Nc2ccc3c(c2)C(=O)N([C@H](C)CO)C[C@H](C)[C@@H](CN(C)C(=O)Nc2ccc4c(c2)OCO4)OCCCC[C@@H](C)O3)cc1 | inactive: 1.02 |
| C[C@@H]1CN([C@@H](C)CO)S(=O)(=O)c2ccc(C#Cc3ccccc3F)cc2O[C@H]1CN(C)C(=O)Cc1cccnc1 | inactive: 1 |
| C[C@H](CO)N1C[C@H](C)[C@@H](CN(C)S(C)(=O)=O)Oc2ccc(NC(=O)Nc3ccc(C(F)(F)F)cc3)cc2C1=O | inactive: 1 |
| COc1ccc(NC(=O)Nc2ccc3c(c2)C(=O)N([C@@H](C)CO)C[C@@H](C)[C@@H](CN(C)CC2CCCCC2)OCCCC[C@@H](C)O3)cc1 | inactive: 0.955 |
| COc1ccc(NC(=O)N(C)C[C@H]2OCCCC[C@H](C)Oc3ccc(NC(=O)Nc4ccc(F)cc4)cc3C(=O)N([C@@H](C)CO)C[C@@H]2C)cc1 | inactive: 0.993 |
| C[C@H](CO)N1C[C@H](C)[C@H](CN(C)Cc2ccc(C(=O)O)cc2)Oc2c(NC(=O)C3CC3)cccc2C1=O | inactive: 1.02 |
